Data as given in PubChem BioAssay AID1768 (National Center for Advancing Translational Sciences (NCATS), 2009).
Screen size: about 270,000 compounds; about 620 (0.23%) were called active. This list was built around the results that the source calls inconclusive (neither active nor inactive); the mix of calls is not that of the screen. Calls follow the shape of the dose curve; as a rule, active = well fitted inhibition curve with a large enough effect in the polarisation, with a control signal flat (not every such curve was filed as active); inconclusive = small, poorly fitted or top-dose-only effect, or effect the other way, or a change in a side signal; inactive = no such curve, though single readings can be large or run the other way; the % refers to the polarisation. Potencies of inconclusive entries are doubtful fits and often do not repeat. “Side channel” marks fits to a control or component signal instead of the main read-out.

Target: Menin (Homo sapiens) (UniProt O00255)
Assay: qHTS Assay for Inhibitors Targeting the Menin-MLL Interaction in MLL Related Leukemias: Competition With Texas Red Labeled MLL-derived Mutant Peptide; as to FP activity change, negative = inhibition: % of control where 0% means no effect
Conditions: fluorescence polarization; FP activity change, negative = inhibition: at 61.6 µM (top of the series)
Potency is read from the fitted curve at half-maximal effect; tags tell the direction and shape of the fitted curve or compound fluorescence and quenching.

Sequence of UniProt O00255 (O00255 whole entry, looked up): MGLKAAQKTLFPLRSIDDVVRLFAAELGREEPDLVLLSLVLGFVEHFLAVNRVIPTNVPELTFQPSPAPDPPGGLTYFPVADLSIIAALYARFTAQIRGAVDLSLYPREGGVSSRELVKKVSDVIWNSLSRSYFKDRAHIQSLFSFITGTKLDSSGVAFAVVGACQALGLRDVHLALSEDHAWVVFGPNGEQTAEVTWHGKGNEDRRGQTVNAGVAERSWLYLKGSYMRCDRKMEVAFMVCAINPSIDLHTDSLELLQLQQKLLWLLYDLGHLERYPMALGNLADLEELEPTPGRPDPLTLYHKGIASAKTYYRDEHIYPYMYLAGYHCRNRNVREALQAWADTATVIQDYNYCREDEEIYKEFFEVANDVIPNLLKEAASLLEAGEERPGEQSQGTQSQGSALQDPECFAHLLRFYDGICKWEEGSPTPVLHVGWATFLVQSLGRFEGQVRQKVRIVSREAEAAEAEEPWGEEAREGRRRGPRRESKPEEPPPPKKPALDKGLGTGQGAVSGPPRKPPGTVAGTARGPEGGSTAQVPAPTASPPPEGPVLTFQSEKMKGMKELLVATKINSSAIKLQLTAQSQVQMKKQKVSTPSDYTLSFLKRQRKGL

FP activity change, negative = inhibition, inactive:
COCCNc1nc(=S)[nH]c2cc(OC)c(OC)cc12 0.846%
O=c1c2ccccc2sn1-c1ccccc1 6.48%
Cc1cc(-c2ccccc2)nc(N2CCC(C(=O)NCc3ccccc3Cl)CC2)n1 -19.5%
Cc1ccccc1Nc1c(-c2ccc(N3CCOCC3)cc2)nc2ncccn12 -3.88%
O=c1n(Cc2cc3c(cc2Cl)OCO3)c(=O)n2n1CC[C@H]1/C(=N\OC[C@@H](O)COCc3ccco3)[C@H]3O[C@@H]3[C@@H](O)[C@@H]12 5.22% [at 11.7 µM]

Potency, active:
COc1ccc(C(=O)Nc2ccccc2C(=O)NC(Cc2ccc(O)cc2)C(=O)NNC(=O)c2ccccc2Cl)cc1 (centres undefined) 28.2 µM

Potency, inconclusive:
FC(F)Sc1ccc(NC(=S)NC2CCCC2)cc1 6.31 µM [quencher, side channel, partial curve]
O=[N+]([O-])c1cc(/C=N\Nc2nccs2)ccc1O 14.1 µM [quencher, side channel, partial curve]
O=C(Nc1ccc(NC(=O)c2cccs2)cc1)c1ccc2ccccc2c1 17.8 µM [fluorescent, side channel, single point]
CCOC(=O)c1c(-c2ccco2)csc1NC(=O)CSc1nnc(N)s1 35.5 µM [quencher, side channel, single point]
CCCC(=O)N(c1ccc(C(=O)O)cc1)c1nc(-c2ccccc2)c(C)s1 11.2 µM [quencher, side channel, partial curve]
Clc1ccc(-n2ncc3c(NCc4ccc5c(c4)OCO5)ncnc32)cc1 28.2 µM [quencher, side channel, single point]
O=S(=O)([O-])CCC[n+]1c(/C=C\Nc2ccccc2)oc2ccc(-c3ccccc3)cc21 22.4 µM [fluorescent, side channel, partial curve]
COc1ccc(/C=C/c2noc(-c3ccccc3O)n2)cc1 39.8 µM [inhibitor, single point]
CC(C)Cc1nnc(NC(=O)CCC(=O)N2CCN(c3ccc(F)cc3)CC2)s1 39.8 µM [fluorescent, side channel, single point]
COc1ccc(OC)c(C2=NS(=O)(=O)N(C)C(C(=O)Nc3cccc(C(C)=O)c3)=C2)c1 15.8 µM [quencher, single point]
COC(=O)N/N=C/c1cn(CCOc2ccc(OC)cc2)c2ccccc12 28.2 µM [quencher, side channel, single point]
O=C(CNCc1ccccc1Cl)Nc1ccccc1N1CCCCC1 15.8 µM [inhibitor, partial curve]
CC(C)c1onc(-c2c(Cl)cccc2Cl)c1COc1ccc(/C=C/c2cccc(C(=O)O)c2)c(Cl)c1 1.41 µM [quencher, side channel, full curve, poor fit]
Cc1ccc2c(c1)C(c1ccc(F)cc1)N(C(=O)c1ccccc1Br)CC(=O)N2 (centres undefined) 2.82 µM [inhibitor, full curve, poor fit]
O=C1CC(C(=O)Nc2ccccc2)S/C(=N\N=C\c2ccco2)N1 (centres undefined) 22.4 µM [inhibitor, partial curve]
Cc1ccc(-c2csc(NC(=O)c3ccccc3Cl)c2C(=O)O)cc1 39.8 µM [quencher, side channel, single point]
O=C(CCS(=O)(=O)c1ccc(Cl)cc1)Nc1nc(-c2cccnc2)cs1 25.1 µM [fluorescent, side channel, partial curve]
CCN(CC)CCCNC(=O)c1cc(-c2ccc3c(c2)OCO3)on1 20 µM [fluorescent, side channel, partial curve]
COC(=O)CCCC1=CC2=C(c3ccccc3)C(=O)C(C)(OC(=O)C3CCCC3)C(=O)C2=CN1C1CCCC1 (centres undefined) 3.16 µM [inhibitor, partial curve]
O=C(O)c1nn(CC(=O)N2CCC(Cc3ccccc3)CC2)c(=O)c2ccccc12 22.4 µM [inhibitor, partial curve]
COc1ccc(N=C2S/C(=C\c3ccc(N4CCOCC4)o3)C(=O)N2CCc2c[nH]c3ccccc23)cc1 8.91 µM [quencher, side channel, full curve]
COc1ccc(NC(=O)CC2C(=O)N(c3ccc(OC)cc3)C(=S)N2NC(=O)c2cccc(F)c2)cc1 (centres undefined) 39.8 µM [inhibitor, single point]
CCOc1ccccc1N1CCN(C(=O)c2ccc(-c3ccc(OC(C)=O)cc3)cc2)CC1 2.51 µM [inhibitor, single point]
Cc1cccc(CCNC(=O)CC2C(=O)NCCN2CC2CCCCC2)n1 (centres undefined) 8.91 µM [fluorescent, side channel, partial curve]
Cc1ccc(C(O)(CCN2CCCCC2)c2ccccc2)cc1 (centres undefined) 39.8 µM [fluorescent, side channel, single point]
COC(=O)c1ccc(/C=C/c2ccc3cccc(OC(C)=O)c3n2)cc1 15.8 µM [quencher, side channel, partial curve]
COc1cc(NC(=O)c2cc([N+](=O)[O-])ccc2Br)ccc1NC(=O)c1ccco1 39.8 µM [quencher, side channel, single point]
CCCCC(=O)Nc1nnc(SCC(=O)Nc2ccc(OC)cc2)s1 31.6 µM [fluorescent, side channel, single point]
Cc1cc2nc(-c3ccco3)cc(C(F)(F)F)n2n1 35.5 µM [quencher, side channel, single point]
O=C(Nc1ncc(Cc2ccccc2Cl)s1)c1ccc([N+](=O)[O-])cc1 6.31 µM [quencher, side channel, partial curve]
CCOc1ccc(NC(=S)N(CCc2c(C)[nH]c3ccc(C)cc23)Cc2ccco2)cc1 10 µM [quencher, side channel, partial curve]
COc1ccccc1/C=N/NC(=O)c1cc2c(OC)c(OC)ccc2[nH]1 25.1 µM [quencher, side channel, partial curve]
NC(N)=NCCC[C@H](NC(=O)CC1(CC(=O)N2CCN(C3c4ccccc4NC(=O)c4ccccc43)CC2)CCCC1)C(=O)NCCn1c(=O)n(-c2ccccc2)n(-c2ccccc2)c1=O (some centres undefined) 1.78 µM [fluorescent, side channel, full curve, poor fit]
Cc1cc(NC(=O)c2sc(Nc3ccc(F)cc3)nc2N)no1 14.1 µM [quencher, side channel, partial curve]
Cc1ccc(S(=O)(=O)N2CCN(C(=O)c3ccc(N4CCCCC4)c([N+](=O)[O-])c3)CC2)cc1 3.16 µM [quencher, side channel, single point]
COc1ccc(-c2csc(NC(=O)c3nc(-c4ccccc4)oc3C)n2)cc1 10 µM [quencher, side channel, partial curve]
COc1ccc(NC(=O)c2ccc(-c3csc(C)n3)cc2)cc1 28.2 µM [fluorescent, side channel, single point]
Cc1nc(SCC(=O)c2cc3ccccc3oc2=O)c(C#N)c(-c2ccccc2)c1C(=O)Nc1ccccc1 28.2 µM [quencher, partial curve]
Cc1nnc(NC(=O)c2cc3n(n2)C(C(F)(F)F)CC(C2CC2)N3)s1 (centres undefined) 39.8 µM [inhibitor, single point]
O=[N+]([O-])c1ccccc1S(=O)(=O)NCCSc1ccccc1 31.6 µM [quencher, side channel, single point]
CN(C)C(=O)c1ccc(-c2nc(N(C)C)c3ccccc3n2)cc1 28.2 µM [inhibitor, partial curve]
Cc1cc2oc(C(=O)Nc3ccc(S(=O)(=O)Nc4ncccn4)cc3)cc(=O)c2cc1Cl 20 µM [quencher, side channel, partial curve]
Cc1ccc2nc(C)cc(C(=O)OCC(=O)c3ccc(Cl)c([N+](=O)[O-])c3)c2c1 14.1 µM [quencher, side channel, partial curve]
Cc1ccc(N2CCN(CC(O)COc3cccc(C)c3)CC2)cc1 (centres undefined) 25.1 µM [fluorescent, side channel, single point]
COc1ccc(CNC(=O)CCC(=O)Nc2ccc(Cl)cc2)cc1 39.8 µM [inhibitor, single point]
O=C(Nc1ccc2c(c1)CCC2)c1ccc(Br)s1 0.631 µM [quencher, side channel, partial curve, poor fit]
Cc1ccc(S(=O)(=O)c2nc(-c3cccs3)oc2SCC(N)=O)cc1 22.4 µM [quencher, side channel, single point]
COCCNC(=O)CN1N=C(c2ccc(C)cc2)CCC1=O 50.1 µM [fluorescent, side channel, partial curve]
